Data on two compounds can be found in PMC4757417, “Functional and Structural Analysis of a β-Glucosidase Involved in β-1,2-Glucan Metabolism in Listeria innocua” (PLoS ONE, 2016).

For this assay, the system named is Lin1840r R572K mutant. The settings on record: R572K vs WT.

Take `OC[C@H]1O[C@@H](O[C@H]2[C@H](O)[C@@H](CO)OC(O)[C@@H]2O)[C@H](O)[C@@H](O)[C@@H]1O` (some centres unmarked) [Lam2, laminaribiose]: the “kcat of R572K relative to WT” value is recorded as 1.5–3.0 times smaller. Regarding `OC[C@H]1O[C@@H](O[C@H]2C(O)O[C@H](CO)[C@@H](O)[C@@H]2O)[C@H](O)[C@@H](O)[C@@H]1O` (some centres unmarked) [Sop2, sophorose], the “kcat of R572K relative to WT” value is listed as 1.5–3.0 times smaller.
